Source: PubChem BioAssay AID1671189 (National Center for Advancing Translational Sciences (NCATS), 2021)
Hit rate of the full screen: of about 1,100 compounds, about 70 (6%) were called active. Not shown: some 22% with an inconclusive outcome. The call rests on the fitted dose curve; in most records, active means well fitted curve in the direction sought with a large enough effect; inconclusive means small, poorly fitted or top-dose-only effect, or another doubt; inactive means no such curve, though single readings can be large or run the other way. Some of the results follow.

biological target: Polyunsaturated fatty acid lipoxygenase ALOX12 (Homo sapiens) (UniProt P18054); assay: Confirmatory qHTS assay for inhibitors of human arachidonate 12S-lipoxygenase (ALOX12): Round 2; details: purified human 12-LOX, xylenol orange absorbance; series mostly up to 125 µM; activity change, negative = inhibition: at the top concentration
From the text: Assay Provider: Theodore R. Holman Ph.D. University of California, Santa Cruz, California Human lipoxygenase 12hLO is a member of the closely related lipoxygenase family of enzymes which catalyze the site-specific oxidation of arachidonic acid to various hormone precursor molecules and as such is a candidate for drug development in a variety of disease areas, such as cancer and inflammation. Inhibition of 12hLO activity was screened by utilizing arachidonic acid as a substrate. The extent of hydroperoxide product formation was measured by a secondary chromogenic reaction in which xylenol orange (XO, Sigma-Aldrich, cat. number 39,818-7) reacts with the ferric ions produced from the reaction between the hydroperoxide and ferrous ions. The Fe (III)-XO complex is characterized with red-shifted absorbance at 560 nm. A purified preparation of human 12hLO was supplied by Dr. Holman laboratory, University of California, Santa Cruz.
PROTOCOL TABLE SEQUENCE No. (e.g., 1, 2, 3, etc.); […] (e.g., Cells, Incubation, Reagent, etc.); VALUE; DESCRIPTION 1; Enzyme; 3 uL; 150 nM 12hLO enzyme solution dispensed in 1536-well Greiner black, clear bottom plates. 2; Compound; 23 nL; compounds and controls were added. 3; Incubate; 15 min; room temperature. 4; Substrate; 1 uL; 40 uM arachidonic acid (final concentration). 5; Incubate; 30 min; room temperature. 6; Reagent; 4 uL; Fe-XO solution was added to each well. 7; Incubation; 30 min; room temperature 8; Detector; absorbance; Read 1 at 405 nm absorbance using ViewLux (PerkinElmer) CCD imager. 9; Detector; absorbance; Read 2 at 573 nm absorbance using ViewLux (PerkinElmer) CCD imager. NOTES (numbers refer to sequence above) 1; 150 nM 12hLO (final concentration) in buffer solution (25 mM Hepes, 0.01% Triton X-100, pH 7.0) was dispensed in columns 1, 2, 5-48. Column 1 is neutral (100% activity). Buffer only was dispensed in columns 3 and 4 as no enzyme negative controls. The plates were covered with metal lids with gas-exchange holes. 2; Compounds were pin transferred via a Kalypsys Pin Tool (Wako USA) in column 5 - 48. Control compound was transferred in column 2, titration of nordihydroguaiaretic acid (NDGA, Sigma-Aldrich, N5023) with top concentration of 20 mM in DMSO then 1:3 dilution in duplicate. Dilution factor of 23 nL into 4 uL final assay volume. 3; Covered assay plates were incubated for 15 min at room temperature. 4; Substrate was added to start the reaction; 40 uM arachidonic acid (Sigma-Aldrich, St. Louis, MO) was dispensed throughout the plate. 6; Chromogenic detection reagent solution (divalent iron/xylenol orange, Fe-XO) was added to each well: 200 uM xylenol orange, 300 uM ferrous ammonium sulfate prepared freshly in 50 mM sulfuric acid. 8, 9; Two absorbance readouts were obtained at 405 nm and at 573 nm using a ViewLux high-throughput CCD plate imager (PerkinElmer). The 573 to 405 (Read 2 / Read 1) absorbance ratio was used to compute reaction progress.
On the % scale 0 is the no-effect control and ±100 the full control effect; potency means the concentration at half of the fitted maximal effect.

Sequence of UniProt P18054 (P18054 whole entry, looked up): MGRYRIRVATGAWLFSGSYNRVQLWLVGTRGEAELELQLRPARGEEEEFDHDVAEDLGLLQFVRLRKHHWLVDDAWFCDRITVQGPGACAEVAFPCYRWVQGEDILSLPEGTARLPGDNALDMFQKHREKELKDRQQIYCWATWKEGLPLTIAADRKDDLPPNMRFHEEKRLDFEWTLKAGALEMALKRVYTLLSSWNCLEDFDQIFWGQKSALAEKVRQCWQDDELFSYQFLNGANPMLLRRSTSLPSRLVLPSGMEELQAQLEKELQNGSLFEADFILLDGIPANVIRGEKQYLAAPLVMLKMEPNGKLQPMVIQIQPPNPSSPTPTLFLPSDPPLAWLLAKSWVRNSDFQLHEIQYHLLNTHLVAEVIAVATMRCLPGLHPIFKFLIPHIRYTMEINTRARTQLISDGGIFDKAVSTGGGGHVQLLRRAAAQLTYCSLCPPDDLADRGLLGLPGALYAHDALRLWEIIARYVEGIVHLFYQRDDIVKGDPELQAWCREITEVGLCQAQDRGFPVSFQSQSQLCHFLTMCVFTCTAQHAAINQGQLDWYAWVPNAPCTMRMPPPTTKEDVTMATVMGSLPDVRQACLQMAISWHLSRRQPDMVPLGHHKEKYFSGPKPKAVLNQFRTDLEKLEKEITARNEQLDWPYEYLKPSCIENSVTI

**Q.** For CN1CC(=O)N(C2CCCNCC2)Cc2c(NCC(C)(C)C)ncnc21 (stereo not given), which “activity change, negative = inhibition” value is on record?
**A.** inactive: 0.649%

**Q.** Which “activity change, negative = inhibition” value does the source give for CC(C)CCN1CCn2c(nn(-c3ccc(Cl)cc3)c2=O)C1 here?
**A.** inactive: -11.1%

**Q.** With COc1ccc(-n2cc(-c3ccnc(NCCC4CCCN4C)n3)cn2)cc1 (stereo not given) as the compound, how does the “activity change, negative = inhibition” value read?
**A.** inactive: -14.8% [at 64.5 µM]

**Q.** With COCc1nc(C2CC(N)C2)cc(N2CCC3(CC2)CNC(=O)O3)n1 (stereo not given) as the compound, how does the “activity change, negative = inhibition” value read?
**A.** inactive: -10.8% [at 64.5 µM]

**Q.** With O=[S+]([O-])(c1ccncc1)c1nnn2c1nc(NCc1ccc(F)cc1)c1ccccc12 as the compound, how does the “activity change, negative = inhibition” value read?
**A.** inactive: -10%

**Q.** Which “activity change, negative = inhibition” value does the source give for Cn1nc(C2CCCN2)c2c(C(=O)NCc3ccc(F)cc3)cc(C3CC3)nc21 (stereo not given) here?
**A.** inactive: -19.8%

**Q.** O=C(OCC#CCSc1nnc(-c2cccc3ccccc23)o1)c1sccc1Cl was tested. Which “activity change, negative = inhibition” value did it give?
**A.** inactive: 8.4% [at 64.5 µM]

**Q.** OC1(CN2CCN(c3nccs3)CC2)CCCNC1 (stereo not given) was tested. Which “activity change, negative = inhibition” value did it give?
**A.** inactive: -6.16% [at 64.5 µM]

**Q.** CNC(C)c1ccc(Oc2ccccc2)cc1 (stereo not given) was tested. Which “activity change, negative = inhibition” value did it give?
**A.** inactive: -25.5%

**Q.** NCc1cccc(-c2ccccc2F)c1 was tested. Which “activity change, negative = inhibition” value did it give?
**A.** inactive: -2.12%

**Q.** Which “activity change, negative = inhibition” value does the source give for CSc1ccc(-c2ccc(C=O)cc2)cc1 here?
**A.** inactive: -29.7% [at 233 µM]

**Q.** For CCOCCNc1ncnc2c1CN(C1CCCNCC1)C(=O)CN2C (stereo not given), which “activity change, negative = inhibition” value is on record?
**A.** inactive: -8.97%

**Q.** For CNC1CCOc2ccccc21 (stereo not given), which “activity change, negative = inhibition” value is on record?
**A.** inactive: -10.9%

**Q.** For CCc1cccc(C)c1NC(=O)C(CC)Sc1nc2ccncc2[nH]1 (stereo not given), which “activity change, negative = inhibition” value is on record?
**A.** inactive: 2.01%

**Q.** Which “activity change, negative = inhibition” value does the source give for O=C1NCCN1C1CCN(Cc2ccc(F)cc2)CC1 here?
**A.** inactive: -13.2%

**Q.** For CN1CC(=O)N(C2CCNCC2)Cc2c(NCC3CCCCC3)ncnc21, which “activity change, negative = inhibition” value is on record?
**A.** inactive: -21.1%

**Q.** Which “activity change, negative = inhibition” value does the source give for O=C(NC1CC1)c1cc(-c2ccccc2C(F)(F)F)nc2onc(C3CCNC3)c12 (stereo not given) here?
**A.** inactive: -24.9%

**Q.** CN(C)CCC(=O)N1Cc2ccccc2CC2(CCCN(C)C2)C1 (stereo not given) was tested. Which “activity change, negative = inhibition” value did it give?
**A.** inactive: 11.5%

**Q.** For Nc1cc(-c2ccccc2)ccc1O, which Potency is on record?
**A.** active: 273 nM

**Q.** For Cc1cc(C)cc(-c2ccc(CN3CCCC(c4nc5ccc(F)cc5c(=O)[nH]4)C3)cc2)c1 (stereo not given), which “activity change, negative = inhibition” value is on record?
**A.** inactive: -20.9%

**Q.** How did the “activity change, negative = inhibition” value turn out when CC(=O)NCCC(=O)N1Cc2ccccc2CC2(CCN(CC3CCNC3)CC2)C1 (stereo not given) was run?
**A.** inactive: -10.6%

**Q.** Which “activity change, negative = inhibition” value does the source give for CN1CC(=O)N(C2CCC2)Cc2c(NC3CCNCC3)ncnc21 here?
**A.** inactive: -10.6%

**Q.** With COCC(C)NC(=O)c1csc2nc(-c3cccc(C(F)(F)F)c3)cn12 (stereo not given) as the compound, how does the “activity change, negative = inhibition” value read?
**A.** inactive: -3.92% [at 64.5 µM]

**Q.** How did the “activity change, negative = inhibition” value turn out when NCc1ccc(-c2cc(C(F)(F)F)ccc2Cl)cc1 was run?
**A.** inactive: -18.7%

**Q.** O=C(O)CCC(=O)N1Cc2ccccc2CC2(CCCN2Cc2ccccc2)C1 (stereo not given) was tested. Which “activity change, negative = inhibition” value did it give?
**A.** inactive: -16.3%

**Q.** For O=c1[nH]c(C2CCN(Cc3ccc(-c4cccnc4)cc3)CC2)nc2ccc(F)cc12, which “activity change, negative = inhibition” value is on record?
**A.** inactive: -14.8%

**Q.** For O=C(c1cc(-c2ccco2)nn1-c1cccc(Cl)c1)N1CCCCC1, which Potency is on record?
**A.** active: 9680 nM

**Q.** With O=C1NCc2ccccc2CC12CCN(Cc1ccccc1OC(F)(F)F)C2 (stereo not given) as the compound, how does the “activity change, negative = inhibition” value read?
**A.** inactive: -19.4%

**Q.** With CC(=O)NCc1cc(Cl)c2cccnc2c1O as the compound, how does the Potency read?
**A.** active: 1930 nM

**Q.** Cc1noc(C)c1C(=O)N1Cc2ccccc2CC2(CCN(CC3CCNCC3)C2)C1 (stereo not given) was tested. Which “activity change, negative = inhibition” value did it give?
**A.** inactive: -7.04%

**Q.** Which “activity change, negative = inhibition” value does the source give for COc1ccc(N2CCN(CC(O)COc3ccc(C(C)(C)C)cc3)CC2)cc1 (stereo not given) here?
**A.** inactive: -5.35%

**Q.** With COc1cccc(N2C(=O)NC(=NC3CCCCC3)C23CCCN([S+](=O)([O-])c2cccc(C(F)(F)F)c2)C3)c1 (stereo not given) as the compound, how does the “activity change, negative = inhibition” value read?
**A.** inactive: -19.8%

**Q.** For Cc1cc(C)n(CC2(Cn3cc(C4CCCNC4)nn3)CC2)n1 (stereo not given), which “activity change, negative = inhibition” value is on record?
**A.** inactive: -6.78% [at 64.5 µM]

**Q.** For CN1CC(=O)N(C2CCNC2)Cc2c(NC3CCCCCC3)ncnc21 (stereo not given), which “activity change, negative = inhibition” value is on record?
**A.** inactive: -10.2%

**Q.** CCN(CC)CCOc1ccc2c(c1)C(=O)c1cc(OCCN(CC)CC)ccc1-2 was tested. Which “activity change, negative = inhibition” value did it give?
**A.** inactive: -12%

**Q.** For CC(C)(N)C(=O)N1CCCC(N2CCN(Cc3ccc4c(c3)OCO4)CC2)C1 (stereo not given), which “activity change, negative = inhibition” value is on record?
**A.** inactive: -16% [at 64.5 µM]

**Q.** With CCCCN1C(=O)[C@@H]2C[C@@H](O)CN2C2(CN(Cc3cnc[nH]3)C2)C1=O as the compound, how does the “activity change, negative = inhibition” value read?
**A.** inactive: 16.1% [at 64.5 µM]

**Q.** Which “activity change, negative = inhibition” value does the source give for Cc1ccc2c(c1)nc1n2[C@@H](CNCc2ccccc2)COC1 here?
**A.** inactive: -0.215% [at 64.5 µM]

**Q.** Which “activity change, negative = inhibition” value does the source give for C[C@H](C(=O)N1Cc2ccccc2CC2(CCN(C)C2)C1)c1ccccc1 (stereo not given in full) here?
**A.** inactive: -12.6%

**Q.** CC(CO)Nc1ncnc2c1CN(C1CCCNCC1)C(=O)CN2C (stereo not given) was tested. Which “activity change, negative = inhibition” value did it give?
**A.** inactive: -8.62%

**Q.** For O=C1Nc2ccccc2CNC12CCN(CC1CCNC1)CC2 (stereo not given), which “activity change, negative = inhibition” value is on record?
**A.** inactive: -13.5%

**Q.** COc1ccc(C(=O)N2CCOC[C@H](Oc3cccnc3)C2)cc1 was tested. Which “activity change, negative = inhibition” value did it give?
**A.** inactive: 23.1% [at 64.5 µM]

**Q.** Which “activity change, negative = inhibition” value does the source give for c1cncc(CN2CCn3c(nnc3C3CCCNC3)C2)c1 (stereo not given) here?
**A.** inactive: -15.9%

**Q.** How did the “activity change, negative = inhibition” value turn out when O=C1NCc2ccccc2CC12CCN(Cc1cnc3ccccc3c1)CC2 was run?
**A.** inactive: -27.7%

**Q.** With CC(=O)N1CCN(c2ncnc3c2CN(C2CCCNCC2)C(=O)CN3C)CC1 (stereo not given) as the compound, how does the “activity change, negative = inhibition” value read?
**A.** inactive: 5.14%

**Q.** With CN(C)C(=O)c1c[nH]c2cccnc12 as the compound, how does the “activity change, negative = inhibition” value read?
**A.** inactive: 1.15% [at 233 µM]

**Q.** For CCn1cnnc1CC1CCCNC1 (stereo not given), which “activity change, negative = inhibition” value is on record?
**A.** inactive: -10.2% [at 64.5 µM]

**Q.** For NCC(=O)N1Cc2ccccc2CC12CCCN(C(=O)c1ccccc1)C2 (stereo not given), which “activity change, negative = inhibition” value is on record?
**A.** inactive: 0.616%

**Q.** With CN(C)CCNC(=O)c1cc2n(n1)CCCN(C(=O)[C@@H]1CCCN1)C2 as the compound, how does the “activity change, negative = inhibition” value read?
**A.** inactive: -7.18% [at 64.5 µM]

**Q.** For COC[C@@H]1CCCN1c1ncnc2c1CN(C1CCNC1)C(=O)CN2C (stereo not given in full), which “activity change, negative = inhibition” value is on record?
**A.** inactive: 23%

**Q.** Which “activity change, negative = inhibition” value does the source give for Cc1ccc(CN2CCCC23Cc2ccccc2CNC3=O)cc1 (stereo not given) here?
**A.** inactive: -19.1%

**Q.** O=C(O)CCCC(=O)N1Cc2ccccc2CC2(CCCN(Cc3ccncc3)C2)C1 (stereo not given) was tested. Which “activity change, negative = inhibition” value did it give?
**A.** inactive: -7.61%

**Q.** Which “activity change, negative = inhibition” value does the source give for COC[C@@H]1CCCN1c1ncnc2c1CN(C1CCCNCC1)C(=O)CN2C (stereo not given in full) here?
**A.** inactive: -20.5%

**Q.** CN1CC(=O)N(C2CCCNCC2)Cc2c1ncnc2N1CCc2ccccc2C1 (stereo not given) was tested. Which “activity change, negative = inhibition” value did it give?
**A.** inactive: -7.62%

**Q.** Which Potency does the source give for CCC(=O)NC(c1ccco1)c1cc(Cl)c2cccnc2c1O (stereo not given) here?
**A.** active: 2170 nM
